The results in this text go back to ChEMBL document CHEMBL4888484, “Replenishing the malaria drug discovery pipeline: Screening and hit evaluation of the MMV Hit Generation Library 1 (HGL1) against asexual blood stage Plasmodium falciparum ,using a nano luciferase reporter read-out” (2022).

Structures are written as SMILES. Screen size: about 150,000 compounds; about 540 (0.36%) showed an effect of 50% or more. The list shows a part of the results.

This assay relates to Plasmodium falciparum. The experiment in a line: Primary screen in NF54 nanoGlo assay, in single point, at 2uM, 72h; a lower Z score goes with more inhibition. It counts as functional, Erythrocyte. Conditions: timepoint 72 hour.
As usually defined, the % Inhibition is the change of the read-out against control, counted positive when it falls. Consider `Cn1nnc2c(=O)n(Cc3ccccc3Cl)cnc21`, for which the “% Inhibition” value was -10% and the Z score stood at 1.62.
On the same counts, the results for `O=C(Nc1nnc[nH]1)c1cccc(OCc2ccc(F)cc2)c1` are -7% and 0.85.
The corresponding values for `CN(C)C(=O)c1cccc(NCC2(N(C)C)CCCCC2)n1` are -5% and 0.69.
In the case of `O=c1nc(Nc2ccccc2Oc2ccccc2)cn[nH]1`, the “% Inhibition” value came to 10% and the Z score was -1.84.
`COc1cc2c(cc1[C@H]1CC(=O)Nc3n[nH]cc31)OCCCO2`: the “% Inhibition” value is on record as -2% and the Z score is reported as 0.47.
The corresponding values for `CC(=O)Nc1ccc(CN2C[C@@H](F)[C@@H](OCc3nc4ccccc4o3)C2)cc1` are -10% and 1.3.
The corresponding values for `Cc1nnc(NC(=O)c2cn(Cc3cccc(Cl)c3)nc2C)s1` are 27% and -3.07.
The corresponding values for `CCc1nc(-c2cc(NC(=O)c3ccc(C)c(NC(C)=O)c3)c(C)s2)no1` are -10% and 1.05.
As to `CC1(C)C[C@@H]2C[C@@](C)(CN2S(=O)(=O)N2CCCCC2)C1`, the “% Inhibition” value is recorded as -13% and the Z score came to 1.23.
The corresponding values for `O=C(c1cc(-c2ccco2)n[nH]1)N1CCC(Oc2ccccn2)CC1` are -4% and 0.71.
Consider `c1ccc(-c2ncn(C[C@H]3COCCO3)c2-c2ncc[nH]2)cc1`, for which the “% Inhibition” value is on record as -13% and the Z score was 1.25.
The corresponding values for `O=c1[nH]cccc1S(=O)(=O)N1CCCCCC1` are -11% and 1.3.
For the compound `CCc1nc(C)c(C(=O)N2C[C@@H]3[C@H](C2)[C@H]2CC[C@@H]3O2)o1`, the “% Inhibition” value is -3% and the Z score is given as 0.62.
The corresponding values for `CC(=O)Nc1nc(-c2cccs2)c(CN2CCN(C)CC2)s1` are -8% and 1.12.
The corresponding values for `COc1ccccc1C(=O)Nc1ccc2nn(-c3ccc(N(C)C)cc3)nc2c1` are -42% and 4.97.
For the compound `CCCc1cnc(C)nc1NC1CCN(CCO)CC1`, the “% Inhibition” value is on record as 3% and the Z score is -0.48.
For the compound `C[C@@H](Cn1cncn1)NC(=O)c1n[nH]c(=O)c2ccccc12`, the “% Inhibition” value was -4% and the Z score is recorded as 0.71.
The corresponding values for `Cc1csc(C(=O)N2C3CCC2CC(S(=O)(=O)c2ccccc2)C3)c1` (stereo not drawn) are 3% and -0.38.
On the same counts, the results for `COc1cccc(C(=O)N[C@H]2CCN(c3cc(-c4ccc(Cl)cc4)n[nH]3)C2)c1` are -9% and 0.94.
Take `O=C(NC1CCC(F)C1)c1ccc(O)nc1` (stereo not drawn): the “% Inhibition” value is -3% and the Z score was determined as 0.33.
The corresponding values for `N#CC1(c2ccccc2)CC(Nc2ccc(OCCO)nc2)C1` (stereo not drawn) are 12% and -1.48.
On the same counts, the results for `Cn1cc(C(=O)NC2(c3cc(F)ccc3F)CC2)ccc1=O` are -9% and 1.19.
Regarding `O=S1(=O)CCC(CNc2ncnc3[nH]ncc23)CC1`, the “% Inhibition” value is given as -13% and the Z score was found to be 2.12.
Take `CC(C)N1C[C@@H]2Oc3cc(C4CCOCC4)ccc3S(=O)(=O)NC[C@H](O)CN(C)[C@@H]2C1`: the “% Inhibition” value is -5% and the Z score stood at 0.75.
The corresponding values for `Cc1cccc([C@@H](C#N)C(=O)c2coc3ccccc23)c1` are -7% and 0.93.
The corresponding values for `Cn1cnc2cc(C(=O)Nc3nc4c(s3)CCCC4)cnc21` are -3% and 0.34.
In the case of `CCOc1ncccc1C(=O)Nc1ccc(OCc2ccccc2)cc1`, the “% Inhibition” value is given as 8% and the Z score was -1.28.
The corresponding values for `Cc1cc(-n2nc(C)nc2-c2cccc3c(=O)c4ccccc4[nH]c23)ccn1` are -8% and 0.75.
As to `O=C(NCc1cccc(-c2cnco2)c1)C1(C(F)F)CCCC1`, the “% Inhibition” value was -21% and the Z score is given as 2.82.
The corresponding values for `Clc1c(CN2CCCC2)cccc1OC12CCCN(CC1)C2` (stereo not drawn) are -3% and 0.66.
The corresponding values for `Cc1nccnc1N1C[C@@H](CO)C[C@@H](CN2CCOCC2)C1` are -7% and 1.46.
The corresponding values for `COC(=O)[C@H](CS(=O)(=O)Nc1cc(C)n(C)n1)c1ccccc1` are 3% and -0.46.
For `CCO[C@H]1C[C@@H](O)C12CCN(C(=O)c1ccc3c4c([nH]c3c1)CCCC4)CC2`, the “% Inhibition” value was -15% and the Z score came out at 1.96.
For the compound `COc1cccc(S(=O)(=O)N2CCc3nc(NC(=O)c4ccc(F)cc4Cl)sc3C2)c1`, the “% Inhibition” value was 8% and the Z score is reported as -0.71.
The corresponding values for `CC(C)c1cc(C(=O)Nc2ccc(F)c(F)c2F)nn1-c1ccccn1` are -5% and 0.52.
The corresponding values for `CCCc1nc(C(=O)NCCCN(C)c2ccccc2)cs1` are -9% and 1.87.
For the compound `Cc1ccc(CN2CCC3(CC2)CCN(C(=O)C2CCC2)C[C@@H]3CO)s1`, the “% Inhibition” value is -10% and the Z score turned out to be 1.2.
On the same counts, the results for `O=C(C1CCCCCC1)N1CCCC1C(O)C(F)(F)F` (stereo not drawn) are 29% and -3.32.
The corresponding values for `CN1C[C@@H](C(=O)N2CCc3c([nH]n(CCO)c3=O)C2)Oc2ccccc21` are -6% and 1.22.
In the case of `C[C@@H](CNC(=O)c1cn(C2CCCCCC2)nn1)Oc1cccnc1`, the “% Inhibition” value stood at 16% and the Z score was -2.04.
The corresponding values for `CCN(CC)Cc1cc(-c2nc(-c3cccnn3)no2)c(C)o1` are -9% and 1.95.
`O=C(NCC1(N2CCOCC2)CCCCC1)Nc1ccc(-c2ccn[nH]2)cc1`: the “% Inhibition” value was -25% and the Z score came out at 2.38.
Turning to `O=c1c(-c2nc(-c3ccc(F)cc3)no2)cnc2ccccn12`, the “% Inhibition” value is -6% and the Z score stood at 0.89.
On the same counts, the results for `CCN1CCC[C@@H]1CNC(=O)c1csc(NC(=O)c2ccccc2C)n1` are -8% and 1.17.
On the same counts, the results for `CCc1nnc(CNC(=O)[C@@H](C)Cn2cncn2)s1` are -4% and 0.52.
On the same counts, the results for `C=CCNS(=O)(=O)c1cc(Br)c(C)cc1C` are -6% and 0.79.
With `Cc1n[nH]c(C)c1CC(=O)N1CCC2(CCc3ccccc3C2)CC1`, the “% Inhibition” value is recorded as -8% and the Z score is listed as 1.46.
Regarding `COc1ccc(Oc2nc(-c3ccccc3)c3cc(Br)ccc3n2)cc1`, the “% Inhibition” value is reported as -3% and the Z score was 0.45.
Take `O=C(NC1CCOCC1)c1cccc(S(=O)(=O)NCc2ccccn2)c1`: the “% Inhibition” value was -4% and the Z score is 0.76.
Take `O=C(Cn1cnc2ccc(Cl)cc2c1=O)Nc1ccc(OCc2ccccc2)cc1`: the “% Inhibition” value is reported as -17% and the Z score was 2.62.
The corresponding values for `CC1CC(C)CN(S(=O)(=O)N2CCCC(O)c3cc(F)ccc32)C1` (stereo not drawn) are -8% and 1.05.
Turning to `C[C@H]1CN(C)C(=O)CN1c1nccc(C(C)(C)C)n1`, the “% Inhibition” value was -19% and the Z score is given as 2.07.
On to `COc1ccc(S(=O)(=O)C2CCN(C(=O)CNC(=O)OCc3ccccc3)CC2)cc1`, for which the “% Inhibition” value worked out at 4% and the Z score is reported as -0.47.
On the same counts, the results for `C[C@@H]1CCN(C(=O)Nc2cccc(-n3cc(C(F)(F)F)cn3)c2)C[C@H](C)O1` are -13% and 1.34.
